The source of these data is patent publication US20070014803A1 (ARBOR VITA, published 2007).

In the experiment the target is T1, HIV-1 Peptide 1904 (HIV-1).
T1 construct: also called HIV peptide 1904
The experiment is described as follows: MATRIX screen of GST-PDZ array, modified G assay ELISA; 'Intensity of Hit'. (ELISA stands for enzyme-linked immunosorbent assay.)

B1: GoRASP1 d1, GST fusion (other)
chain: MGLGVSAEQPAGGAEGFHLHGVQENSPAQQAGLEPYFDFIITIGHSRLNKENDTLKALLKANVEKPVKLEVFNMKTMRVREVEVVPSNMWGGQGLLGASVRFCSFRRASE
notes: also called GORASP1 (PDZ #1)
As to B1, the binding result is given as “binds”.
